Experimental data taken from PubChem BioAssay AID485344 (National Center for Advancing Translational Sciences (NCATS), 2010).
Values joined by “and” are separate entries in the source; they are usually repeats but may differ in a detail not shown here. Equal entries are not always repeated. About 6,900 (2%) of roughly 340,000 compounds were called active. Cut-off read from the data, not from the text of the source: active = inhibition above about 30%; inactive = below that, where a call was filed. This is a selection; strong and weak results do not stand in their true shares. Where no call is shown, the source filed none.

These compounds were tested against D(2) dopamine receptor (Homo sapiens) (UniProt P14416) (assay: HTS Assay for Allosteric Antagonists of the Human D2 Dopamine Receptor: Primary Screen for Antagonists). Settings: HEK293 TREx D2 cells, calcium flux, dopamine EC80; at 10 µM; stronger effect = higher value.
Chain of UniProt P14416 (P14416 whole entry, looked up): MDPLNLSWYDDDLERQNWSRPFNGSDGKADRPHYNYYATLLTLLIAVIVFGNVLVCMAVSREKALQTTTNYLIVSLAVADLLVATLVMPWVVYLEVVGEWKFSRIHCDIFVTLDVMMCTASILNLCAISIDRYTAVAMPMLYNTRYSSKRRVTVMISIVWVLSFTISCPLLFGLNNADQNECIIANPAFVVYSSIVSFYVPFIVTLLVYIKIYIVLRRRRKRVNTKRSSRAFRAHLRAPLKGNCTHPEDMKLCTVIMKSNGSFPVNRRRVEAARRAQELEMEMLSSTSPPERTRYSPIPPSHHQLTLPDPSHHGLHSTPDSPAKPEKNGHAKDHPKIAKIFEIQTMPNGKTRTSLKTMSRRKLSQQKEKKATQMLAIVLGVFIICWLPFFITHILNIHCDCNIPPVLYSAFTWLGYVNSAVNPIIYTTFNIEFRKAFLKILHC
How it was run: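 Read-out: kinetic calcium fluorescence (1 cycle/s) in inducible HEK293 T-REx D2 cells after an EC80 dopamine addition that followed 180 s compound preincubation. Loss of the dopamine response indicates antagonism.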
Note: 0% is about no effect.

SMILES	inhibition
Cc1nc2ccc(S(=O)(=O)NCC(=O)Nc3ccc(F)cc3F)cc2s1	17.7%
CC(C)(C)C(=O)Nc1ccccc1C(=O)OCc1cc(=O)n2ccsc2n1	5.09%
CCc1ccc(OCCn2c(C3CC(=O)N(Cc4ccc(F)cc4)C3)nc3ccccc32)cc1 (centres undefined)	-3.53%
CCc1ccccc1-n1nnc(-c2nsc(NC(=O)c3ccc(C)c(C)c3)n2)c1C	-2.22%
CCOC(=O)c1c(C)[nH]c(C)c1S(=O)(=O)N(C)CC(=O)Nc1ccc(C)cc1Br	0.753%
COCCCNC(=O)CSC1=Nc2ccccc2C2=NC(CCC(=O)NCc3ccc(OC)cc3)C(=O)N12 (centres undefined)	8.67%
CCCCn1c(=O)nc2n(-c3ccc(Br)cc3)c3ccccc3cc-2c1=O	9%
Oc1ccc[n+](/C=C\c2ccccc2)c1	active: 37.9%
CC1CCCN(CCCNC(=O)Cn2ncc3c([nH]c4ccccc43)c2=O)C1 (centres undefined)	-9.38%
Nc1nn(-c2ccccc2)nc1C(=O)OCc1ccccc1	0.0898%
Cc1ccc(/C=C(\C#N)C(=O)Nc2cccc(Br)c2)o1	-2.54%
Cc1ccc(Cl)cc1N1CCN(C(=O)c2cc3c(=O)oc4ccccc4c3s2)CC1	1.52%
CCN1CCN(C(c2ccccc2Cl)c2c(O)cc(C)n(CCOC)c2=O)CC1 (centres undefined)	16.2%
Cc1oc(-c2ccc(Cl)cc2)nc1CN1CCCC(C(=O)NCc2ccccc2)C1 (centres undefined)	3.49%
Cc1ccc(-n2c(COCC(=O)O)nc3cccnc32)cc1	5.79%
Cc1ccc(S(=O)(=O)NCC2CCC(C(=O)NCCCOC(C)C)CC2)cc1 (centres undefined)	-22%
CCCCNc1nc2ccccc2c2nc(-c3ccccc3)nn12	12.7%
CCCCN(CC)CCNC(=O)c1cc2c(=O)n(CC)c3ccccc3c2s1	-10.4% and active: 35.7%
CCCCNCCOc1ccccc1-c1ccccc1	active: 69.5%
COc1ccc(C)cc1NC(=O)NC1CCN(Cc2ccccc2)CC1	active: 75.1%
Cc1ccccc1NC(=O)c1oc2c(c1C)-c1nn(Cc3cccc(Cl)c3)cc1CC2	5.95%
Cc1nc(SCCOc2ccccc2F)[nH]c(=O)c1Cc1ccccc1	11.1%
CC(C)CNC(=O)NC(=O)COc1ncnc2sccc12	active: 37.2%
CCn1c(C)c(C(=O)c2ccccc2)c(C#N)c1C(=O)O	active: 33.4%
Fc1ccccc1N1CCN(c2nccn3nc(-c4ccc(Br)cc4)cc23)CC1	-8.35%
Cc1ccc(NC(=O)Cn2nc(Cc3ccncc3)c3ccccc3c2=O)c(Cl)c1	-10.4%
CCc1c(C)nc2nncn2c1NCc1ccc(Cl)cc1	-13.2%
COc1ccccc1CNC(=O)CN1N=C(c2ccccc2)CCC1=O	10%
CCOc1ccc(NC(=O)c2oc3ccccc3c2NC(=O)c2ccc(OC)cc2OC)cc1	6.93%
